The list shows a part of the results. Single values are uncertain, as repeats are few or missing.
Tests used:
Assay in all cases: cell count relative to DMSO control; melanoma cells; higher = more viable cells
Conditions in all cases: library dose: low library concentration; 72 h
[1] = test system: WM115
[2] = test system: WM1716
[3] = test system: WM1745
[4] = test system: WM3526
[5] = test system: WM3619
[6] = test system: WM451Lu
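Note: cell number obtained by counting DAPI-stained nuclei in high-throughput microscope images with image analysis software, screen run in 1,536-well plates.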

Compound | cell count [1] [%] | cell count [2] [%] | cell count [3] [%] | cell count [4] [%] | cell count [5] [%] | cell count [6] [%]
NC1(c2ccc(-c3nc4ccn5c(=O)[nH]nc5c4cc3-c3ccccc3)cc2)CCC1 + O=C(CCCCCCC(=O)Nc1ccccc1)NO [vorinostat] (first compound 0.4 µM, partner dose 0.08 µM) | 79 | 109 | 99.7 | 72.5 | 69.8 | 74.7
NC1(c2ccc(-c3nc4ccn5c(=O)[nH]nc5c4cc3-c3ccccc3)cc2)CCC1 + C[C@@H]1CCN(C(=O)CC#N)C[C@@H]1N(C)c1ncnc2[nH]ccc12 [CP690550] (first compound 0.4 µM, partner dose 1 µM) | 62.8 | 96.4 | 80.7 | 56.6 | 75.7 | 49.8
CS(=O)(=O)c1ccc(C(=O)Nc2ccc(Cl)c(-c3ccccn3)c2)c(Cl)c1 [vismodegib] + COc1cc2c(Oc3ccc4[nH]c(C)cc4c3F)ncnc2cc1OCCCN1CCCC1 [cediranib] (first compound 1 µM, partner dose 0.4 µM) | 100 | 101 | 93.6 | 95.8 | 117 | 106
CS(=O)(=O)c1ccc(C(=O)Nc2ccc(Cl)c(-c3ccccn3)c2)c(Cl)c1 [vismodegib] + O=C1NC(=O)/C(=C/c2ccc(-c3ccc(F)cc3O)o2)S1 [AS252424] (first compound 1 µM, partner dose 1 µM) | 94 | 96.7 | 84.6 | 102 | 120 | 75.3
CS(=O)(=O)c1ccc(C(=O)Nc2ccc(Cl)c(-c3ccccn3)c2)c(Cl)c1 [vismodegib] + Cc1nc(Nc2ncc(C(=O)Nc3c(C)cccc3Cl)s2)cc(N2CCN(CCO)CC2)n1 [dasatanib] (first compound 1 µM, partner dose 0.004 µM) | 80.1 | 90.8 | 76 | 98 | 88.4 | 70.2
CCCS(=O)(=O)Nc1ccc(F)c(C(=O)c2c[nH]c3ncc(Cl)cc23)c1F + Nc1ncn([C@H]2C[C@H](O)[C@@H](CO)O2)c(=O)n1 [decitabine] (first compound 0.08 µM, partner dose 0.1 µM) | 98.6 | 85 | 94.4 | 63.4 | 72.6 | 89.7
CN(c1ncccc1CNc1nc(Nc2ccc3c(c2)CC(=O)N3)ncc1C(F)(F)F)S(C)(=O)=O + Nc1ncn([C@H]2C[C@H](O)[C@@H](CO)O2)c(=O)n1 [decitabine] (first compound 0.08 µM, partner dose 0.1 µM) | 76.4 | 70.7 | 72.7 | 113 | 93.8 | 76.5
CS(=O)(=O)c1ccc(C(=O)Nc2ccc(Cl)c(-c3ccccn3)c2)c(Cl)c1 [vismodegib] + Clc1ccc(Nc2nnc(Cc3ccncc3)c3ccccc23)cc1 [vatalanib] (first compound 1 µM, partner dose 2 µM) | 97.6 | 83.5 | 77.3 | 112 | 93.9 | 95.8
CN(c1ncccc1CNc1nc(Nc2ccc3c(c2)CC(=O)N3)ncc1C(F)(F)F)S(C)(=O)=O + CCc1ccc(CCOc2ccc(CC3SC(=O)NC3=O)cc2)nc1 [pioglitazone] (first compound 0.08 µM, partner dose 2 µM) | 83.7 | 75.5 | 76.6 | 97.9 | 130 | 95.6
CS(=O)(=O)c1ccc(C(=O)Nc2ccc(Cl)c(-c3ccccn3)c2)c(Cl)c1 [vismodegib] + C=CCn1c(=O)c2cnc(Nc3ccc(N4CCN(C)CC4)cc3)nc2n1-c1cccc(C(C)(C)O)n1 [MK1775] (first compound 1 µM, partner dose 0.02 µM) | 80.4 | 83 | 83 | 91.5 | 84.3 | 83.9
CN(c1ncccc1CNc1nc(Nc2ccc3c(c2)CC(=O)N3)ncc1C(F)(F)F)S(C)(=O)=O + CC(C)(C)c1cnc(CSc2cnc(NC(=O)C3CCNCC3)s2)o1 [SNS-032] (first compound 0.08 µM, partner dose 0.01 µM) | 102 | 76.6 | 78.3 | 70.4 | 95.8 | 66
CCCS(=O)(=O)Nc1ccc(F)c(C(=O)c2c[nH]c3ncc(Cl)cc23)c1F + Cc1cc(N2CCOCC2)cc2[nH]c(-c3c(NC[C@@H](O)c4cccc(Cl)c4)cc[nH]c3=O)nc12 [BMS536924] (first compound 0.08 µM, partner dose 0.2 µM) | 88.9 | 89.6 | 78.4 | 55.8 | 92.3 | 91.6
CS(=O)(=O)c1ccc(C(=O)Nc2ccc(Cl)c(-c3ccccn3)c2)c(Cl)c1 [vismodegib] + Cn1cc(/C=C2\C(=O)Nc3cccnc32)c2ccccc21 [GW441756] (first compound 1 µM, partner dose 0.4 µM) | 105 | 107 | 122 | 109 | 109 | 115
NC1(c2ccc(-c3nc4ccn5c(=O)[nH]nc5c4cc3-c3ccccc3)cc2)CCC1 + O=C(O)[C@@H]1[O][Sb](=[O])([O][Sb]2(=[O])[O][C@H]([C@H](O)CO)[C@H](O)[C@H](C(=O)O)[O]2)[O][C@H]([C@H](O)CO)[C@@H]1O [stibogluconate] (first compound 0.4 µM, partner dose 2 µM) | 82.6 | 105 | 88.4 | 80.6 | 90.1 | 89.2
CCCS(=O)(=O)Nc1ccc(F)c(C(=O)c2c[nH]c3ncc(Cl)cc23)c1F + NC(=O)Nc1cc(-c2cccc(F)c2)sc1C(=O)N[C@H]1CCCNC1 [AZD7762] (first compound 0.08 µM, partner dose 0.02 µM) | 99.9 | 101 | 112 | 58.8 | 97.9 | 99.7
CS(=O)(=O)c1ccc(C(=O)Nc2ccc(Cl)c(-c3ccccn3)c2)c(Cl)c1 [vismodegib] + COCC[n+]1c2c(n(Cc3cnccn3)c1C)C(=O)c1ccccc1C2=O [YM155] (first compound 1 µM, partner dose 0.0004 µM) | 89.7 | 82.7 | 97.3 | 87.2 | 86.4 | 79.7
CS(=O)(=O)c1ccc(C(=O)Nc2ccc(Cl)c(-c3ccccn3)c2)c(Cl)c1 [vismodegib] + CO[C@H]1C[C@@H]2CC[C@@H](C)[C@@](O)(O2)C(=O)C(=O)N2CCCC[C@H]2C(=O)O[C@H]([C@H](C)C[C@@H]2CC[C@@H](OCCO)[C@H](OC)C2)CC(=O)[C@H](C)/C=C(\C)[C@@H](O)[C@@H](OC)C(=O)[C@H](C)C[C@H](C)/C=C/C=C/C=C/1C [everolimus] (first compound 1 µM, partner dose 0.02 µM) | 80.2 | 73.4 | 90.4 | 67.9 | 78.7 | 68.8
NC1(c2ccc(-c3nc4ccn5c(=O)[nH]nc5c4cc3-c3ccccc3)cc2)CCC1 + CNC(=O)c1cc(Oc2ccc(NC(=O)Nc3ccc(Cl)c(C(F)(F)F)c3)cc2)ccn1 [sorafenib] (first compound 0.4 µM, partner dose 0.4 µM) | 71.8 | 88.3 | 84.9 | 69 | 80.2 | 141
CS(=O)(=O)c1ccc(C(=O)Nc2ccc(Cl)c(-c3ccccn3)c2)c(Cl)c1 [vismodegib] + C[C@]1(c2nc3c(C(N)=O)cccc3[nH]2)CCCN1 [Veliparib] (first compound 1 µM, partner dose 1.4 µM) | 84.9 | 94.3 | 98.8 | 106 | 111 | 112

Reference: the supplement of paper PMC4604168 (melanoma cell lines)
